# PubChem BioAssay AID1745853 (National Center for Advancing Translational Sciences (NCATS), 2022)
# Several values for one entry are separate records, joined by “and”; a condition that tells them apart may be missing. Identical values can stand only once. This is one part of the list. Shown are side measurements of this screen, not its main read-out; they come without a call.
# Tests used:
# Assay in all cases: Primary Screen for Target Class Profiling of Small Molecule Inhibitors of Methyltransferases
# [1] = target: Glycine N-methyltransferase (Homo sapiens) (UniProt Q14749); conditions: purified enzyme, MTase-Glo SAH luminescence; measured here: GNMT inhibition; at 40 µM; stronger effect = lower value
# Procedure, shortened: (§1)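 Each enzyme was assayed with SAM and its substrate. SAH formation detected by MTase-Glo luminescence; single-point 40 uM screen[…].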
# [2] = target: Guanidinoacetate N-methyltransferase (Homo sapiens) (UniProt Q14353); conditions: purified enzyme, MTase-Glo SAH luminescence; measured here: GAMT inhibition; at 40 µM; stronger effect = lower value
# Procedure, shortened: as §1
# [3] = target: Histamine N-methyltransferase (Homo sapiens) (UniProt P50135); conditions: purified enzyme, MTase-Glo SAH luminescence; measured here: HNMT inhibition; at 40 µM; stronger effect = lower value
# Procedure, shortened: as §1
# [4] = target: Nicotinamide N-methyltransferase (Homo sapiens) (UniProt P40261); conditions: purified enzyme, MTase-Glo SAH luminescence; measured here: NNMT inhibition; at 40 µM; stronger effect = lower value
# Procedure, shortened: as §1
# [5] = target: Phenylethanolamine N-methyltransferase (Homo sapiens) (UniProt P11086); conditions: purified enzyme, MTase-Glo SAH luminescence; measured here: PNMT inhibition; at 40 µM; stronger effect = lower value
# Procedure, shortened: as §1
# On the % scale 0 is the no-effect control and ±100 the full control effect.
SMILES,"activity change, negative = inhibition [1]","activity change, negative = inhibition [2]","activity change, negative = inhibition [3]","activity change, negative = inhibition [4]","activity change, negative = inhibition [5]"
CCOc1ccc(CCNC(=O)c2cc3sc(Cl)cc3n2C)cc1OCC,4.58%,-1.87%,13.1%,-15.3%,-6.3%
Cc1cc2ncc(C(=O)N3CCN(c4ncccn4)CC3)cn2n1,-3.9%,-2.22%,-0.266%,-7.22%,-2.76%
C/C=C/C=C/[C@@H]1O[C@](O)([C@H](CC)C(=O)NC/C=C/C=C(\C)[C@@H](OC)[C@@H](C)[C@@H]2O[C@H](/C=C/C=C/C=C(\C)C(=O)c3c(O)ccn(C)c3=O)[C@H](O)[C@@H]2O)[C@H](O)[C@H](O)C1(C)C,-0.426%,-1.02%,-3.55%,-12.9%,1.95%
CS(=O)(=O)c1ccc(-n2nc(C(F)(F)F)cc2-c2ccc(F)cc2)cc1,4.57% and 1.26%,13.2% and -0.675%,10.8% and 5.45%,-5.88% and -14%,1.18% and -0.967%
O=C(O)[C@@H]1CN(C(=O)CCCc2cn[nH]c2)C[C@H]1c1ccc2c(c1)OCO2,-5.96%,-8.79%,-2.03%,-13.9%,-10.2%
COCCOC1CCN(C(C(=O)O)c2ccc(OC)c(F)c2)CC1 (stereo unspecified),-4.18%,-3.73%,-1.73%,-7.74%,-13.1%
COc1ccc(CNC(=O)CCn2ccc3cc(S(=O)(=O)N4CCCCC4)ccc32)cc1OC,-2.3%,0.877%,-2.99%,0.901%,0.365%
Cc1ccc(N2C(=O)c3cc4sccc4n3CC2(C)C(=O)NC2CCC(C)CC2)cc1C (stereo unspecified),2.56%,0%,0.133%,0.525%,-3.81%
CCc1cc2c(cc3n2CC(C)(C(=O)NC2CCCCCC2)N(c2ccc(C)c(C)c2)C3=O)s1 (stereo unspecified),2.95%,0%,4.54%,5.99%,2.72%
O=C(CC1CCOC2(CCN(S(=O)(=O)c3ccc(F)cc3)CC2)C1)N1CCOCC1 (stereo unspecified),2.44%,0.112%,6.56%,3.87%,1.83%
CC1(C)C[C@H](O)C[C@@]2(C)OC(=O)C=C12,-6.14%,-22.3%,-0.127%,-31.8%,-4.12%
Cc1ccc(=O)n(-c2ccccc2)c1,1.63%,13.3%,8.71%,-2.55%,7.41%
Cc1cccc(NC(=O)CSc2nnc3n(CC(C)C)c(=O)c4ccccc4n23)c1,-2.77%,2.63%,6.94%,-4.31%,2.81%
Cc1nc(C(=O)N2CC[C@H](NC(=O)c3snnc3C)C[C@H]2C(=O)N[C@H](CC(C)C)C(N)=O)cs1,-7.78%,-10.5%,-3%,-13.6%,-0.516%
CCc1ccc(CNC(=O)c2cc3n(n2)CC(C)(C(=O)NCc2ccc(C)cc2)N(C)C3=O)cc1 (stereo unspecified),-0.524%,0.325%,-0.38%,-8.38%,-1.28%
CCC(C)NC(=O)c1ccc2c(=O)n(CCC(C)C)c3nn(Cc4cccc(C)c4)c(=O)n3c2c1 (stereo unspecified),3.44%,0%,8.38%,3.25%,6.7%
Cc1cc(C)cc(NC(=O)CSc2nnc3n(CCCOC(C)C)c(=O)c4ccccc4n23)c1,-1.15%,0%,3.46%,-3.35%,2.17%
COC(=O)c1ncn2c1C(=O)N(c1cccc(C)c1C)C(C)(C(=O)NC1CCCC1)C2 (stereo unspecified),-0.834%,5.55%,-4.49%,0.995%,-1.49%
CC1(C)CCCC2(C)C1C(=O)C=C(C(=O)O)C2(O)C(=O)O (stereo unspecified),0%,-5.62%,6.61%,-19.9%,-11.1%
Cc1nc(C2CC(O)C2)cc(N2CCN(c3nc4ccccc4s3)CC2)n1 (stereo unspecified),-12.8%,-11.5%,-15.8%,-16.6%,4.97%

SMILES,"activity change, negative = inhibition [1]","activity change, negative = inhibition [2]","activity change, negative = inhibition [3]","activity change, negative = inhibition [4]","activity change, negative = inhibition [5]"
Cc1cc(C)cc(NC(=O)Cn2c(-c3cnccn3)nc(C)c(C)c2=O)c1,-11.4%,-8.81%,-5.5%,-9.72%,-8.92%
CCC(CC)C(=O)N1CCC2(CC1)C(=O)N(C)c1ccccc12,-7.9%,-8.92%,-3.87%,-5.05%,-6.1%
CCCN1C(=O)c2c(C(=O)NCCc3ccc(Cl)cc3)ncn2CC1(C)C(=O)NCc1ccc(F)cc1 (stereo unspecified),0.955%,0.967%,9.43%,8.86%,12.9%
CCc1c(C)nn(CCNC(=O)c2cc(S(N)(=O)=O)ccc2F)c1C,-0.967%,-1.65%,0.813%,-1.34%,-0.093%
O=C(Cc1ccccn1)N1CCCC(C(=O)N2CCC(N3CCCC3=O)CC2)C1 (stereo unspecified),-1.05%,-5.87%,0.526%,-7.79%,-3.54%
Cc1ccc(Cn2c(=O)c3ccc(C(=O)NC(C)C)cc3n3c(=O)n(Cc4cccc(C)c4)nc23)cc1,5.21%,4.73%,7%,4.26%,3.28%
COCCNC(=O)CCn1ccc2cc(S(=O)(=O)N3CCCCC3)ccc21,1.69%,3.51%,0.854%,3.6%,1.74%
CCOc1ccccc1NS(=O)(=O)c1ccc2[nH]c(=O)[nH]c2c1,0.251%,0%,1.69%,-3.12%,-7.55%
Cc1cccc(NC(=O)Cn2nc3n(CC(C)C)c(=O)c4ccc(C(=O)NCC(C)C)cc4n3c2=O)c1,4.27%,0.136%,5.21%,3.04%,5.51%
CCCC1c2ccc(C)n2CCN1C(=O)Nc1cc(Cl)ccc1C(=O)OC (stereo unspecified),-18.6%,1.06%,-12.8%,-6.42%,-8.88%
Cc1nc(N2CCN(C(=O)c3ccco3)CC2)c2c3c(sc2n1)CCCC3,-35%,-3.13%,-17.7%,-49.6%,-18.6%
Cc1cccc(N2CCN(C(=O)Cn3ncc4ccc(Cl)cc43)CC2)c1C,0.061%,0%,2.69%,8.82%,0.686%
COc1ccccc1CNC(=O)C1(C)Cn2c(cc3ccccc32)C(=O)N1Cc1cccc(F)c1 (stereo unspecified),6.58%,4.89%,9.79%,9.02%,2.85%
Cn1c(=O)n(C)c2cc(S(=O)(=O)N(Cc3ccco3)C(=O)c3cccnc3)ccc21,5.52%,0.431%,8.99%,18.3%,5.93%
Cc1cc2[nH]c(=O)[nH]c2cc1S(=O)(=O)NCCc1ccccc1,2.4%,0%,-3.04%,-5.82%,-8.95%
CC(C)n1c(=O)c2ccc(C(=O)NC3CCCC3)cc2n2c(=O)n(Cc3ccc(F)cc3Cl)nc12,0.338%,0%,5.69%,2.89%,1.94%
CC(C)c1ccc(N2C(=O)c3cc4sccc4n3CC2(C)C(=O)NC2CCCC(C)C2C)cc1 (stereo unspecified),0.717%,0.386%,1.23%,2.41%,-1.59%
CCn1ncc(CN2CCCC23CCN(c2ccc(C(F)(F)F)cn2)CC3)c1C,-5.87%,-5.46%,-7.98%,-11%,0.403%
COc1cc(N2CCOCC2)ccc1Nc1ncc(F)c(Nc2ccccc2NS(C)(=O)=O)n1,-52.1%,-0.011%,7.57%,-14.1%,-11.5%
CCOc1ccc(N2C(=O)CSc3c(c4ccccc4n3C)C2C(=O)NCCC(C)C)cc1 (stereo unspecified),4.2%,0%,-0.952%,-1.31%,5.02%

SMILES,"activity change, negative = inhibition [1]","activity change, negative = inhibition [2]","activity change, negative = inhibition [3]","activity change, negative = inhibition [4]","activity change, negative = inhibition [5]"
N[C@@H](Cc1cc(I)c(Oc2ccc(O)c(I)c2)c(I)c1)C(=O)O,-8.9%,-34.6%,-9.85%,-52.5%,-18.2%
COC(=O)c1cc(OC)cc(OC)c1C(=O)c1c(OC)cc2c(c1O)C1CCC(O)C(C)(O2)O1 (stereo unspecified),-1.74%,4.6%,2.4%,-10.2%,2.17%
O=C1CC(c2ccccc2)NCCCCCCN1 (stereo unspecified),-2.41%,-1.95%,0.453%,-1.82%,-9.04%
O=c1cc(N2CCOCC2)oc2c(NCC3CCOCC3)nccc12,-4.93%,-1.67%,-1.32%,-9.62%,-12.8%
CC(C)c1ccc2c(c1)C(O)CC1C(C)(C(=O)O)CCCC21C (stereo unspecified),-0.998%,-10.4%,3.46%,-19%,-2.95%
COC[C@H](C)Oc1cc(O[C@@H](C)Cc2ccccc2)cc(C(=O)Nc2ccc(C(=O)O)cn2)c1,,-5.61%,,-14%,-0.525%
C[C@@H]1O[C@@H](O[C@@H]2/C=C/C=C/C=C\C=C\C[C@H](C)OC(=O)/C=C/[C@H]3O[C@@H]3C[C@H](O)C[C@]3(O)C[C@@H](O)[C@@H](C(=O)O)[C@H](C2)O3)[C@H](O)[C@H](N)[C@@H]1O,,-12.7%,,-20.8%,-1.32%
OC[C@H]1O[C@@H](OCCc2ccc(O)cc2)[C@H](O[C@@H]2OC[C@](O)(CO)[C@H]2O)[C@@H](O)[C@@H]1O,4.32%,8.56%,9.95%,-3.57%,6.39%
CCN1CCN(Cc2ccc(C(=O)Nc3ccc(C)c(Oc4ccc5c(c4)CC(=O)N5)c3)cc2C(F)(F)F)CC1,-0.979%,-1.15%,-5.42%,-21.7%,-14.5%
CCc1cccc(NC(=O)c2cc3n(n2)CC(C)(C(=O)NC2CCCC2)N(CC)C3=O)c1 (stereo unspecified),2.24%,1.72%,-5.9%,2.7%,3.36%
CC1(C)[C@H]2CC[C@@H](CNC(=O)c3ccc4ccccc4n3)[C@@H]1C2,-6.35%,-4.36%,-1.17%,-20.9%,-11.5%
CCC(=O)N1CCc2c(C(=O)N3CCCCC3)cccc21,-5.63%,-12.4%,-3.83%,-16.5%,-14%
COC1CCC(C(=O)N2CCC3(CC2)OC(=O)N(CCOc2ccccc2)C3(C)c2cccnc2)CC1 (stereo unspecified),-2.43%,-8.92%,-2.98%,-14.9%,-9.82%
C=CCS(=O)(=O)N1C[C@H]2OC(=O)N(CCc3cccc(Cl)c3)[C@H]2C1,-3.31%,-4.75%,-0.435%,-1.66%,-4.94%
COc1ccccc1[C@@H]1C2=C(CC(C)(C)CC2=O)Nc2n[nH]c(C(F)(F)F)c21,-0.852%,6.58%,0.149%,-21.7%,-1.49%
CCC1(C(=O)O)CCCCC(=O)N1 (stereo unspecified),-2.71%,-3.96%,-2.42%,-5.89%,0.713%
CCC(C)C(=O)OC1CC(O)C23C4OCC5(C(O)CC2C1(C)C(O)O4)C3C(=O)CC1(C)C(c2ccoc2)CC2OC215 (stereo unspecified),-0.408%,1.53%,2.28%,-6.99%,-0.077%
COCc1nc(C2CC(NC(=O)CN3C(=O)CN(C)C3=O)C2)cc(=O)[nH]1 (stereo unspecified),-3.19%,-7.69%,-2.66%,-4.9%,-9.96%
COc1cccc(CNC(=O)c2ccc3c(=O)nc4c(-c5ccc(C)cc5)n[nH]n4c3c2)c1,-13.3%,-0.321%,-5.3%,-8.65%,-8.73%
